# Source: the supplement of paper PMC4604168 (melanoma cell lines)
# The other results are listed elsewhere or left out. Most values come without repeats; read them as rough.
# What was measured:
# Assay in all cases: cell count relative to DMSO control; melanoma cells; higher = more viable cells
# Details in all cases: library dose: standard library concentration; 72 h
# G361 = tested on: G361
# IPC-298 = tested on: IPC-298
# IST-MEL1 = tested on: IST-MEL1
# LB2518-MEL = tested on: LB2518-MEL
# LOXIMVI = tested on: LOXIMVI
# MEL-HO = tested on: MEL-HO
# MZ2-MEL = tested on: MZ2-MEL
# MeWo = tested on: MeWo
# RPMI7951 = tested on: RPMI7951
# RVH-421 = tested on: RVH-421
# 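Also: cells treated in 1,536-well plates, then fixed and DAPI-stained, with nuclei counted from automated high-throughput microscope images.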
SMILES,cell count (G361) [%],cell count (IPC-298) [%],cell count (IST-MEL1) [%],cell count (LB2518-MEL) [%],cell count (LOXIMVI) [%],cell count (MEL-HO) [%],cell count (MZ2-MEL) [%],cell count (MeWo) [%],cell count (RPMI7951) [%],cell count (RVH-421) [%]
"CC[C@]1(O)C[C@H]2CN(CCc3c([nH]c4ccccc34)[C@@](C(=O)OC)(c3cc4c(cc3OC)N(C=O)[C@H]3[C@@](O)(C(=O)OC)[C@H](OC(C)=O)[C@]5(CC)C=CCN6CC[C@]43[C@@H]65)C2)C1 [vincristine] + OCc1c[nH]c2ccccc12 [Indole-3-carbinol] (first compound 0.0005 µM, partner dose 4 µM)",119,91.5,97.2,114,74,99.9,99.2,89.4,60.9,90.8
"CC[C@]1(O)C[C@H]2CN(CCc3c([nH]c4ccccc34)[C@@](C(=O)OC)(c3cc4c(cc3OC)N(C=O)[C@H]3[C@@](O)(C(=O)OC)[C@H](OC(C)=O)[C@]5(CC)C=CCN6CC[C@]43[C@@H]65)C2)C1 [vincristine] + CN(c1ncccc1CNc1nc(Nc2ccc3c(c2)CC(=O)N3)ncc1C(F)(F)F)S(C)(=O)=O [PF562271] (first compound 0.0005 µM, partner dose 0.4 µM)",101,94.7,86.9,71.4,80.6,95,82.7,98.8,48.1,60
"N#CC[C@H](C1CCCC1)n1cc(-c2ncnc3[nH]ccc23)cn1 [ruxolitinib] + Nc1ccn([C@@H]2O[C@H](CO)[C@@H](O)C2(F)F)c(=O)n1 [gemcitabine] (first compound 5 µM, partner dose 0.002 µM)",39.8,51.7,34,87.6,80.7,63.1,90,41,62.5,72.1
"N#CC[C@H](C1CCCC1)n1cc(-c2ncnc3[nH]ccc23)cn1 [ruxolitinib] + C[C@@H](N)c1ccc(C(=O)Nc2ccnc3[nH]ccc23)cc1 [RKI983] (first compound 5 µM, partner dose 2 µM)",76.6,73.2,79.2,98.2,68.5,59.7,57.1,54.8,74.5,48.9
"CC[C@]1(O)C[C@H]2CN(CCc3c([nH]c4ccccc34)[C@@](C(=O)OC)(c3cc4c(cc3OC)N(C=O)[C@H]3[C@@](O)(C(=O)OC)[C@H](OC(C)=O)[C@]5(CC)C=CCN6CC[C@]43[C@@H]65)C2)C1 [vincristine] + NC(=O)c1ccc(N(C(N)=O)c2c(F)cccc2F)nc1-c1ccc(F)cc1F [VX702] (first compound 0.0005 µM, partner dose 2 µM)",85.7,98.9,110,103,88,125,99.9,84.2,71.6,90.6
"Cc1cc(Nc2cc(N3CCN(C)CC3)nc(Sc3ccc(NC(=O)C4CC4)cc3)n2)n[nH]1 [Tozasertib] + O=c1[nH]nc(Sc2ncc([N+](=O)[O-])s2)n1-c1ccc2c(c1)OCCO2 [BI78D3] (first compound 0.03 µM, partner dose 1 µM)",93.9,86.7,128,83.1,129,94.4,68,84.6,68.8,116
"Cc1cc(Nc2cc(N3CCN(C)CC3)nc(Sc3ccc(NC(=O)C4CC4)cc3)n2)n[nH]1 [Tozasertib] + Nc1ccn([C@@H]2O[C@H](CO)[C@@H](O)C2(F)F)c(=O)n1 [gemcitabine] (first compound 0.03 µM, partner dose 0.002 µM)",34.2,43.3,44.2,57.2,68.9,62.4,61.5,37.9,54.4,54.3
"CC[C@]1(O)C[C@H]2CN(CCc3c([nH]c4ccccc34)[C@@](C(=O)OC)(c3cc4c(cc3OC)N(C=O)[C@H]3[C@@](O)(C(=O)OC)[C@H](OC(C)=O)[C@]5(CC)C=CCN6CC[C@]43[C@@H]65)C2)C1 [vincristine] + c1cc(-c2cnn3cc(-c4ccc(OCCN5CCCCC5)cc4)cnc23)ccn1 [Dorsomorphin] (first compound 0.0005 µM, partner dose 2 µM)",18.4,64.6,44.4,42.6,56.9,63.5,26.7,25.4,29.2,29.6
"CC[C@]1(O)C[C@H]2CN(CCc3c([nH]c4ccccc34)[C@@](C(=O)OC)(c3cc4c(cc3OC)N(C=O)[C@H]3[C@@](O)(C(=O)OC)[C@H](OC(C)=O)[C@]5(CC)C=CCN6CC[C@]43[C@@H]65)C2)C1 [vincristine] + COc1ccc2c(c1)CCC1C2CCC2(C)C(NCCCCCCN3C(=O)C=CC3=O)CCC12 [U73122] (first compound 0.0005 µM, partner dose 2 µM)",100,87.3,104,124,90.5,96.6,92,57.8,36.5,81.3
